Structures are written as SMILES. Records with an inconclusive call do not appear. Unless noted, calls follow the shape of the dose curve; as a rule, active = well fitted curve in the direction sought with a large enough effect in the repeat runs; inconclusive = weak or mixed curves; inactive = no such curve, though single readings can be large; an effect the other way counts as inactive or inconclusive. Where a structure was tested more than once in an assay, its records may differ in their call. For part of its entries the source gives two or more results. This list holds those alone. There may be further records. The records of an entry are repeats across runs, samples, wells, individuals or studies. A tag in brackets gives the origin of a value. The letters are not those of the source and start again with each entry.

Test [1] can be described thus: qHTS assay for small molecules that induce genotoxicity in human embryonic kidney cells expressing luciferase-tagged ATAD5 - cell viability (AID 651634; calls by dose curve; also: nearly all actives have a fitted effect of over 25% in size). As to conditions: HEK293T ATAD5-luc cells viability, CellTiter-Fluor, 15.5 h; series mostly up to 83.3 µM. The gist of the method: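 Live-cell protease activity (CellTiter-Fluor, fluorescence) indicates viability. HEK293T cells with luciferase-tagged ATAD5; 15.5 hr compound treatment at 37C.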
For orientation: In qHTS, concentration-response curves come from the screen itself.

Test [2] in a line: qHTS assay to identify small molecule antagonists of the androgen receptor (AR) signaling pathway using the MDA cell line - cell viability counter screen (AID 743041; also: nearly all actives have a fitted effect of over 45% in size). As to conditions: MDA-kb2 viability, CellTiter-Fluor, 16 h, cells co-treated with R1881 androgen agonist; series mostly up to 70.3 µM. The essentials: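 MDA-kb2 AR-luc human breast carcinoma cells (MMTV-luciferase, AR/GR responsive) were treated with compounds plus R1881 agonist for 16 h at 37 °C. Viability was read as CellTiter-Fluor fluorescence in the same wells as the reporter assay.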

The nature of test [3]: qHTS assay to identify small molecule antagonists of the thyroid receptor (TR) signaling pathway (AID 743065). Also: nearly all actives have a fitted effect of over 55% in size. The settings on record: GH3.TRE-Luc, T3-stimulated luciferase inhibition, 23.5 h; series mostly up to 70.3 µM. The essentials: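 GH3.TRE-Luc rat pituitary cells carrying two TR response elements driving luciferase were plated for 4 h, given compound plus 1 nM T3 (final), and incubated 23.5 h at 37 C. ONE-Glo luminescence measured reporter inhibition; CellTiter-Fluor fluorescence tracked cytotoxicity.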

Test [4] can be described thus: qHTS assay to identify small molecule antagonists of the glucocorticoid receptor (GR) signaling pathway - cell viability counter screen (AID 720693). Also: nearly all actives have a fitted effect of over 55% in size. The settings on record: GR-bla HeLa viability, CellTiter-Glo luminescence, 18 h, with 5 nM dexamethasone present; series mostly up to 58.5 µM.
A short description of test [5]: qHTS assay to identify small molecule agonists of the constitutive androstane receptor (CAR) signaling pathway - cell viability counter screen (AID 1224836). Also: nearly all actives have a fitted effect of over 45% in size. As to conditions: HepG2-CYP2B6-hCAR viability, CellTiter-Fluor, 23 h, PK11195 added to every well; series mostly up to 42.5 µM. The essentials: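 Counter screen multiplexed with the CAR reporter readout: HepG2 cells co-transfected with hCAR and the CYP2B6-2.2kb construct receive a 15-concentration compound series and 0.75 uM PK11195 (final), then CellTiter-Fluor fluorescence is read after 23 h.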

The nature of test [6]: qHTS assay to identify small molecule antagonists of the constitutive androstane receptor (CAR) signaling pathway - cell viability counter screen (AID 1224837). Also: nearly all actives have a fitted effect of over 45% in size. The settings on record: HepG2-CYP2B6-hCAR viability, CellTiter-Fluor, 23 h, co-treated with 50 nM CITCO; series mostly up to 42.5 µM. The gist of the method: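 Fluorescence from CellTiter-Fluor served as the viability signal. Human hepatoma HepG2 cells stably bearing hCAR and CYP2B6-2.2kb received compound plus CITCO (50 nM final) for 23 hr.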

Test [7] can be described thus: A CellTox Green Cytotoxicity Assay to monitor cytotoxicity in HEK293 cells - 24 hour (AID 1224875). Also: nearly all actives have a fitted effect of over 45% in size. The settings on record: CellTox Green fluorescence; series mostly up to 35.3 µM. The gist of the method:
(§1)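 Each value comes from one timepoint of a single continuous run in which HEK293 cells with CellTox Green were exposed to compound for up to 40 h at 37 C, dye fluorescence rising with cell death.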

Test [8] is described as follows: A CellTox Green Cytotoxicity Assay to monitor cytotoxicity in HEK293 cells - 16 hour (AID 1224888). Also: nearly all actives have a fitted effect of over 35% in size. As to conditions: CellTox Green fluorescence; series mostly up to 35.3 µM. The essentials:
as §1

Test [9] in a line: qHTS assay to identify small molecule antagonists of the estrogen receptor alpha (ER-alpha) signaling pathway using the BG1 cell line in the presence of 0.1 nM 17-beta-estradiol - cell viability counter screen (AID 1259241). Also: nearly all actives have a fitted effect of over 40% in size. As to conditions: VM7Luc4E2 (BG1) viability, CellTiter-Fluor protease, 22 h, 0.1 nM estradiol agonist added; series mostly up to 42.5 µM. The gist of the method:
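The cell line endogenously expresses full-length ER-alpha and carries four EREs driving luciferase. Cells are cultured 5 days hormone-free, treated 22 hr with compounds and 0.1 nM estradiol, then viability is read by fluorescence.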

Test [10] can be described thus: qHTS assay to identify small molecule antagonists of the TGF-beta/Smad signaling pathway - cell viability counter screen (AID 1346824). Also: nearly all actives have a fitted effect of over 50% in size. As to conditions: SBE-bla HEK293T viability, CellTiter-Glo luminescence; series mostly up to 35.3 µM. The gist of the method:
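SBE-bla HEK 293T cells were plated overnight at 37 C, then given compounds in DMSO plus TGF-beta1 (added as 0.25 ng/mL solution) for 5 hr. After the bla read, CellTiter-Glo was added to the same wells and luminescence read after 30 min at room temperature.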

Test [11] is described as follows: qHTS assay to identify small molecule antagonists of the peroxisome proliferator-activated receptor gamma (PPARg) signaling pathway - cell viability counter screen (AID 743194). Also: nearly all actives have a fitted effect of over 55% in size. As to conditions: PPARg-bla HEK293H viability, CellTiter-Glo luminescence, 17 h, co-treated with 50 nM rosiglitazone; series mostly up to 62.6 µM. The essentials: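 PPARg-UAS-bla HEK293H cells were plated, rested 5 h at 37 C, then treated with compounds plus rosiglitazone (50 nM final) for 17 h at 37 C; viability was then read by CellTiter-Glo luminescence after 30 min at room temperature.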
Potency is read from the fitted curve at half-maximal effect.

`CC(=O)N1CCN(c2ccc(OC[C@H]3CO[C@](Cn4ccnc4)(c4ccc(Cl)cc4Cl)O3)cc2)CC1`: the Potency result in test [1] is “inactive [sample A] and active: 48.6 µM [sample B]”; in test [2] it was “inactive [sample A] and active: 61.1 µM [sample B]”.
As to `CCCC1O[C@@H]2C[C@H]3[C@@H]4CCC5=CC(=O)C=C[C@]5(C)[C@H]4[C@@H](O)C[C@]3(C)[C@]2(C(=O)CO)O1` (stereo partly drawn), the Potency entry in test [3] was “inactive [sample A] and active: 61.2 µM [sample B] and active: 48.6 µM [sample C]”.
Take `Cc1ccc(O)c(C(C)(C)C)c1`: the Potency entry in test [1] is “active: 54.4 µM [sample A] and inactive [sample B]”; in test [4], “active: 24.5 µM [sample A] and inactive [sample B]”; in test [2], “active: 61 µM [sample A] and inactive [sample B]”; in test [3] it was “active: 19.3 µM [sample A] and inactive [sample B]”.
Take `Clc1ccccc1C(c1ccccc1)(c1ccccc1)n1ccnc1`: the Potency result in test [1] is “inactive [sample A] and active: 54.5 µM [sample B]”; in [5] it was “active: 30.6 µM [sample A] and inactive [sample B]”; in [6], “active: 27.3 µM [sample A] and inactive [sample B]”; in test [7] it was “active: 49 µM [sample A] and inactive [sample B]”; in test [8], “active: 49 µM [sample A] and inactive [sample B]”; in test [9] it was “active: 61.1 µM [sample A] and inactive [sample B]”. Moreover, the Potency result in [10] is “active: 49 µM [sample A] and inactive [sample B]”.
With `Oc1ccc(Cl)cc1Sc1cc(Cl)ccc1O`, the Potency entry in test [7] was “active: 43.6 µM [sample A] and inactive [sample B]”; in test [8] it was “active: 43.6 µM [sample A] and inactive [sample B]”.
`Oc1ccc2cc(SSc3ccc4cc(O)ccc4c3)ccc2c1`: the Potency entry is “inactive [sample A] and active: 61.1 µM [sample B]” in [3]; “inactive [sample A] and active: 21.9 µM [sample B]” in test [11].
Regarding `CC[C@H](c1ccc(O)cc1)[C@@H](CC)c1ccc(O)cc1`, the Potency result was “inactive [sample A] and active: 49 µM [sample B]” in test [4]; “active: 38.9 µM [sample A] and inactive [sample B]” in [11].
For the compound `CC(C)(C)CC(C)(C)c1ccc(OCCOCC[N+](C)(C)Cc2ccccc2)cc1`, the Potency entry in test [6] was “active: 68.5 µM [sample A] and inactive [sample B]”.
`O=C1Cc2cc(CCN3CCN(c4nsc5ccccc45)CC3)c(Cl)cc2N1`: the Potency result in [1] was “inactive [sample A] and active: 29.8 µM [sample B]”.
As to `O=C(OC[C@H]1O[C@@H](OC(=O)c2cc(O)c(O)c(OC(=O)c3cc(O)c(O)c(O)c3)c2)[C@H](OC(=O)c2cc(O)c(O)c(OC(=O)c3cc(O)c(O)c(O)c3)c2)[C@@H](OC(=O)c2cc(O)c(O)c(OC(=O)c3cc(O)c(O)c(O)c3)c2)[C@@H]1OC(=O)c1cc(O)c(O)c(OC(=O)c2cc(O)c(O)c(O)c2)c1)c1cc(O)c(O)c(OC(=O)c2cc(O)c(O)c(O)c2)c1`, in [1], the Potency result is “active: 9.44 µM [sample A] and inactive [sample B]”.

The record behind these values is PubChem BioAssay (Tox21).
